From PubChem BioAssay AID504332 (National Center for Advancing Translational Sciences (NCATS), 2011)
Hit rate of the full screen: of about 350,000 compounds, about 31,000 (8.9%) were called active. Inconclusive means that the source gave no clear call. Such entries were picked first, then a sample of the others. Calls come from the whole dose curve; as a rule, active = well fitted inhibition curve with a large enough effect; inconclusive = small, poorly fitted or top-dose-only effect; inactive = no such curve, though single readings can be large or run the other way. A potency beside an inconclusive call is a rough fit, not a confirmed value.
% is set by controls: 0 for no effect and ±100 for the full control effect; potency is the fitted concentration of half-maximal effect; tags give direction and shape of the fitted curve.
Note: nearly all actives have a fitted effect of over 75% in size.

These molecules were tested against Histone-lysine N-methyltransferase EHMT2 (Homo sapiens) (UniProt Q96KQ7) (assay: qHTS Assay for Inhibitors of Histone Lysine Methyltransferase G9a). Conditions: G9a H3K9 monomethylation, AlphaScreen, 2 h; activity, negative = inhibition: at 59 µM (top of the series) unless noted.
UniProt Q96KQ7, sequence (Q96KQ7 whole entry, looked up): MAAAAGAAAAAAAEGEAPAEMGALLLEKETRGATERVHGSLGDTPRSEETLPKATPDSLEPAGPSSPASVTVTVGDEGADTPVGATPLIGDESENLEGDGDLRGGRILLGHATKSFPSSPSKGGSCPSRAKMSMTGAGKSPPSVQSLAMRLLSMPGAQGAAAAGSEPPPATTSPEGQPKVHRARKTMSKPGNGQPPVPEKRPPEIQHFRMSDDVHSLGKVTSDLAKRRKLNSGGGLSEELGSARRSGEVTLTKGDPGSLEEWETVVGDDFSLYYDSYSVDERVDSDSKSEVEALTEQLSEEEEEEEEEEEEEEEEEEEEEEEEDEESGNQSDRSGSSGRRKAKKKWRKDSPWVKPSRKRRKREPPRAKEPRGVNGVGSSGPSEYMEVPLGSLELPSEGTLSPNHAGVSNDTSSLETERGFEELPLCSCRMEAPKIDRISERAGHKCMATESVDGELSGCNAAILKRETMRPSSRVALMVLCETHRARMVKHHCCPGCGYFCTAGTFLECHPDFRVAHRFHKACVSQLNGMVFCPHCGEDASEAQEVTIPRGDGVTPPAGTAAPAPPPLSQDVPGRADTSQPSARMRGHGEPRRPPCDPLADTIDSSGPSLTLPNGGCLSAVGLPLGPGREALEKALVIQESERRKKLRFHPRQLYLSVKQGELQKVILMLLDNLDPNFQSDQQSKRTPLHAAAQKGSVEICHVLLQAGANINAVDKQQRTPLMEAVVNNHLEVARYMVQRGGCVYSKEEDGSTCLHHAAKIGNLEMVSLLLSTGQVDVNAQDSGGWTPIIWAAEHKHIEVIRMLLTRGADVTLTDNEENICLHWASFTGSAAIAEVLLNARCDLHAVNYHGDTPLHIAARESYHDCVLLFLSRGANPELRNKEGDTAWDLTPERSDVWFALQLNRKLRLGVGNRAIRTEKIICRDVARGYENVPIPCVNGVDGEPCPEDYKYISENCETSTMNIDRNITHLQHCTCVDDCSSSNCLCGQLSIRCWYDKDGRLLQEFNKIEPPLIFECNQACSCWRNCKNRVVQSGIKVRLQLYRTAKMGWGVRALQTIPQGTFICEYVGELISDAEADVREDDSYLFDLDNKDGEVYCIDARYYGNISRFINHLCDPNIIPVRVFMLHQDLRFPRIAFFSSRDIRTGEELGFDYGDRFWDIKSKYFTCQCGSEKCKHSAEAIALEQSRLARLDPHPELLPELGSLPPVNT
How it was run: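 Step 1: enzyme (final 20 nM) with compound, 15 min RT. Step 2: substrate peptide 500 nM and SAM 20 uM, 2 h RT. Step 3: anti-H3K9me1 antibody and AlphaScreen beads, 10 min, then plate read.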
`Cc1c(O)ccc(/C(Cc2ccc3ccccc3n2)=N\N)c1O` was tested, and the Potency was active: 8.91 µM. `O=C1CN(C(=O)C2CCC(=O)N(CCc3ccc(Cl)cc3)C2)CCN1` (centres undefined) was tested, and the Potency was inconclusive: 89.1 µM [inhibitor, single point]. `Cc1noc(NS(=O)(=O)c2ccc(NC(=O)c3cc(F)c(F)c(F)c3F)cc2)c1C` was tested, and the Potency was inconclusive: 79.4 µM [inhibitor, single point]. For `CS(=O)(=O)c1ccc(C(=O)Nc2cc(S(C)(=O)=O)ccc2Cl)cc1`, the Potency was active: 44.7 µM. For `Brc1ccc(-c2nc3ccccn3c2Nc2ccc3c(c2)OCCO3)o1`, the Potency was inconclusive: 2.51 µM [inhibitor, full curve]. For `Cn1c(=O)n(C)c2cc(C(=O)Nc3ccc4c(c3)OCO4)ccc21`, the Potency was “inactive”. With `CCCc1cc(=O)[nH]c2nnc(SCC(=O)Nc3nnc(SCC)s3)n12` the Potency was “inactive”. For `CNC(=O)c1c(NC(=O)c2nc3ccccc3s2)sc2c1CCC2`, the Potency was active: 39.8 µM. `COc1ccc(CCNC(=O)CNS(=O)(=O)c2ccc(N(C)C)c([N+](=O)[O-])c2)cc1OC` was tested, and the Potency was inconclusive: 79.4 µM [inhibitor, single point]. With `O=C(CNc1cc(S(=O)(=O)N2CCCC2)ccc1OCC(F)(F)F)Nc1ccc(SC(F)F)cc1` the Potency was inconclusive: 0.126 µM [inhibitor, full curve, poor fit]. For `Cn1c2c(c(=O)n(C)c1=O)C(NC(=O)C(C)(C)C)(C(F)(F)F)C(=O)N2` (centres undefined), the Potency was inconclusive: 100 µM [inhibitor, single point]. `CCCCn1c(N)c(N(CC(C)C)C(=O)c2cccc(OCc3ccccc3)c2)c(=O)[nH]c1=O` was tested, and the Potency was inconclusive: 63.1 µM [inhibitor, partial curve, poor fit]. For `O=C(NCCN1CCC(Cc2ccccc2)CC1)C1CCN(S(=O)(=O)N2CCC3(CC2)OCCO3)CC1`, the Potency was inconclusive: 79.4 µM [inhibitor, partial curve, poor fit]. `CCOC(=O)c1c(S(=O)(=O)N2CCC(C(=O)NCc3ccc(F)cc3)CC2)c(C)n(C)c1C` was tested, and the Potency was “inactive”. `C=Cc1ccc(Cn2c(C(=O)O)c(CNC3CCCC3)c3ccc(C)cc32)cc1` was tested, and the Potency was inconclusive: 3.16 µM [inhibitor, partial curve, poor fit]. For `Cc1ccnc(N2C(=O)c3ccccc3C2Nc2cccc(C)c2C)c1` (centres undefined), the Potency was “inactive”. In the case of `CC(NCc1ccc(S(N)(=O)=O)cc1)C(=O)N1CCc2ccccc21` (centres undefined), the Potency is reported as “inactive”. `O=C(Nc1nc(-c2cccnc2)cs1)c1ccc([N+](=O)[O-])cc1` was tested, and the Potency was inconclusive: 70.8 µM [inhibitor, single point]. In the case of `Cc1ccc(SCCC(=O)NC(C)C)cc1`, the Potency is reported as “inactive”. `Cc1ccc(-c2csc3ncn(-n4c(C)ccc4C)c(=O)c23)o1` was tested, and the Potency was active: 10 µM. In the case of `COC(=O)C1CCN(C(=O)Cc2ccccc2OC)CC1`, the Potency is reported as inconclusive: 89.1 µM [inhibitor, partial curve, poor fit]. For `CCN(CCNC(=O)C1CCCN(S(=O)(=O)CC)C1)c1ccccc1` (centres undefined), the Potency was inconclusive: 14.1 µM [inhibitor, partial curve, poor fit]. `COc1ccc(NC(=O)/C(Cl)=C(/Cl)S(=O)Cc2ccc(C)cc2)cn1` (centres undefined) was tested, and the Potency was inconclusive: 25.1 µM [inhibitor, single point]. With `CC1CN(C2CCN(S(=O)(=O)c3ccccc3)CC2)CC(C)O1` (centres undefined) the Potency was inconclusive: 31.6 µM [inhibitor, single point]. For `CCN(CC)S(=O)(=O)c1cc(NC(=O)C2=COCCO2)ccc1Cl`, the Potency was active: 50.1 µM. In the case of `Cc1ccc([N+](=O)[O-])c(OCCN2C(=O)NC(C)(C)C2=O)c1`, the Potency is reported as inconclusive: 56.2 µM [inhibitor, partial curve]. In the case of `O=C(Nc1ccc(F)cc1)c1cccnc1N1CCCCC1`, the Potency is reported as inconclusive: 1 µM [inhibitor, full curve, poor fit]. For `C/C(=N\N=C1/SC(CC(=O)O)C(=O)N1c1ccccc1)c1ccc(C)cc1` (centres undefined), the Potency was inconclusive: 50.1 µM [inhibitor, partial curve, poor fit]. For `Oc1[nH]c2ccccc2c1N=Nc1nc(Nc2ccccc2)nc(N2CCOCC2)n1`, the Potency was “inactive”. With `COC(=O)c1ccc(C2/C(=C(\O)c3cccc(OC)c3)C(=O)C(=O)N2CCCN(C)C)cc1` (centres undefined) the Potency was inconclusive: 25.1 µM [inhibitor, single point]. In the case of `CCn1c(=O)c([N+](=O)[O-])c(N2CCN(Cc3ccc4c(c3)OCO4)CC2)c2ccccc21`, the Potency is reported as active: 31.6 µM. `OC(CN1CCN(c2ccccc2)CC1)c1ccc2c(c1)CCN2` (centres undefined) was tested, and the Potency was inconclusive: 79.4 µM [inhibitor, single point]. `O=C(CCCn1c(=O)oc2ccccc21)NC1CCCCCC1` was tested, and the Potency was “inactive”. In the case of `CCCCCOc1ccc(C(=O)NCC2(c3ccccc3)CCOCC2)cc1`, the Potency is reported as inconclusive: 2.24 µM [inhibitor, partial curve, poor fit]. `COc1cccc(NC(=O)CN2CCN(c3nc(-c4cccc(OC)c4)cs3)CC2)c1` was tested, and the Potency was active: 10 µM. `CN1CCN(S(=O)(=O)c2ccc(NC(=O)COc3ccccc3)cc2)CC1` was tested, and the Potency was “inactive”. `CCn1c(CNS(=O)(=O)c2ccc(Br)cc2)nnc1SC` was tested, and the Potency was “inactive”. With `CCOC(=O)C1=C(C)Nc2ncnn2C1c1ccc(N(C)C)cc1` (centres undefined) the Potency was inconclusive: 89.1 µM [inhibitor, single point]. In the case of `CC(NS(=O)(=O)c1ccccc1)C(=O)Nc1ccc(S(N)(=O)=O)cc1` (centres undefined), the Potency is reported as inconclusive: 39.8 µM [inhibitor, single point]. For `Cc1nc2cc(-c3ccccc3)nn2c(C)c1CCC(=O)NCc1ccco1`, the Potency was inconclusive: 22.4 µM [inhibitor, partial curve, poor fit]. `Cc1ccccc1-c1noc(-c2cccnc2NCc2ccco2)n1` was tested, and the Potency was inconclusive: 39.8 µM [inhibitor, partial curve, poor fit]. In the case of `O=C1/C(=C/c2cccs2)Sc2ccccc21`, the Potency is reported as inconclusive: 31.6 µM [inhibitor, single point]. With `c1ccc(Cn2cc(CSc3ccccc3)nn2)cc1` the Potency was “inactive”. For `Cc1cc(C)n2ncc(C(=O)Nc3cccc(O)c3)c2n1`, the Potency was inconclusive: 35.5 µM [inhibitor, partial curve]. In the case of `CCCSc1ncc(Cl)c(C(=O)NCc2ccc(OC)cc2)n1`, the Potency is reported as “inactive”. For `CC(=O)C1C(=O)CC(C)(O)C(C(C)=O)C1c1ccc(N(C)C)cc1` (centres undefined), the Potency was inconclusive: 2 µM [inhibitor, single point]. With `O=C(c1cc(S(=O)(=O)N2CCCCC2)c(Cl)cc1N1CCOCC1)N1CCOCC1` the Potency was inconclusive: 3.98 µM [inhibitor, partial curve, poor fit]. In the case of `Cc1ccccc1NC(=O)NCc1ccc2c(c1)OCO2`, the Potency is reported as “inactive”. In the case of `O=C(c1ccc2oc(CCc3ccccc3)nc2c1)N1CCC(O)CC1`, the Potency is reported as “inactive”. With `Cc1ccccc1NC(=O)CSc1nnc(COc2ccc(Cl)cc2)o1` the Potency was inconclusive: 31.6 µM [inhibitor, partial curve, poor fit]. For `CCOc1ccc(N2CCc3c(C)nc(SC)nc32)cc1`, the Potency was “inactive”. For `C=CCn1c(C)cc(C(=O)COC(=O)COc2ccccc2C#N)c1C`, the Potency was inconclusive: 50.1 µM [inhibitor, partial curve]. In the case of `COc1ccc(C(=O)N2CCN(c3c(C)cccc3C)CC2)cc1OC`, the Potency is reported as inconclusive: 10 µM [inhibitor, partial curve, poor fit]. In the case of `COc1ccc(-n2nc3c(c2NC(=O)c2ccccc2S(=O)(=O)C(F)F)CS(=O)(=O)C3)cc1`, the Potency is reported as inconclusive: 79.4 µM [inhibitor, single point]. For `CN(CCc1ccccn1)C(=O)CCC1CCCN(C(=O)c2ccccn2)C1` (centres undefined), the Potency was “inactive”. With `C=CCSc1nc(-c2ccccc2)c(C#N)c(=O)[nH]1` the activity, negative = inhibition was inactive: -35.7% [at 2.33 µM]. With `CCOC(=O)c1ccc(S(=O)(=O)NCCN(CC)CC)cc1` the Potency was inconclusive: 39.8 µM [inhibitor, partial curve, poor fit]. In the case of `CN1CCC(=NNC(=O)C(=O)Nc2ccc(F)cc2)CC1`, the Potency is reported as inconclusive: 17.8 µM [inhibitor, full curve]. In the case of `CCOC(=O)c1c(NC(=O)c2ccc(Br)cc2)sc2c1CCCC2`, the Potency is reported as active: 10 µM. For `COc1cccc(N2CCN(Cc3nc(N)nc(N4CCCc5ccccc54)n3)CC2)c1`, the activity, negative = inhibition was inconclusive: -81.7% [inhibitor]. `O=C(O)c1cccc(Nc2ncnc3ccc(Br)cc23)c1` was tested, and the Potency was inconclusive: 7.94 µM [inhibitor, partial curve, poor fit]. `C=CCNC(=O)c1ccc(-c2ccc([N+](=O)[O-])cc2)o1` was tested, and the Potency was inconclusive: 31.6 µM [inhibitor, single point]. `O=C1/C(=C/c2ccc(O)cc2)SC(=S)N1CC1CCCO1` (centres undefined) was tested, and the Potency was inconclusive: 12.6 µM [inhibitor, full curve]. `CC1=C(C(=O)Nc2ccc(C(=O)NCCCN3CCCCC3)cc2)SCCO1` was tested, and the Potency was “inactive”. With `Cc1ccccc1NC(=O)c1cccc2c(=O)c3c([nH]c12)CCCC3` the Potency was inconclusive: 39.8 µM [inhibitor, partial curve, poor fit]. For `O=C(COC(=O)c1cc(=O)[nH]c2ccccc12)Nc1ccc(Cl)cn1`, the Potency was inconclusive: 11.2 µM [inhibitor, partial curve]. For `O=C1C=C(c2ccc3ccccc3c2)C[C@@H](c2ccc(Cl)cc2)C1`, the activity, negative = inhibition was inconclusive: -66.1% [inhibitor] [at 2.33 µM]. With `CCN(CC)c1ccc(/C=N/NC(=O)Nc2ccccc2)cc1` the Potency was active: 10 µM. In the case of `O=C(c1ccc(Cl)c(S(=O)(=O)N2CCOCC2)c1)N1CCN(c2ccccc2)CC1`, the Potency is reported as inconclusive: 8.91 µM [inhibitor, full curve].
